Assay results reported in the BET-seq Pho4 binding data (Le et al. 2018).
The other results are listed elsewhere or left out. Values were computed here from the reads of four pooled replicates and scatter widely.

The sequences below were run against T1, Pho4 (S. cerevisiae) (UniProt P07270) (assay: relative binding free energy (BET-seq); higher = weaker binding). Details: reference: library average.
T1 sequence: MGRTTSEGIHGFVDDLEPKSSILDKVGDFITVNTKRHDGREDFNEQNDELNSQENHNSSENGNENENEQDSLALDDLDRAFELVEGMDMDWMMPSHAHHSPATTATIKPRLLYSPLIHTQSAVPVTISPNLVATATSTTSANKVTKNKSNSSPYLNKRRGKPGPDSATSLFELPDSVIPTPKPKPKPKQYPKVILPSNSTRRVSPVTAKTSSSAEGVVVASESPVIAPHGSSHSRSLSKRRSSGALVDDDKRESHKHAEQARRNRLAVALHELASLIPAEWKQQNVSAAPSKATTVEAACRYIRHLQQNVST

Sequence | relative binding free energy [kcal/mol]
TGGCTCACGTGAAGAG | 0.39
AAGGACACGTGTTTAG | 0.08
GGTGACACGTGGCTGT | -0.06
CGGTTCACGTGATATT | 0.31
TTGTTCACGTGTTTTC | 0.28
GTCCGCACGTGTGGGG | 0.04
TCTGTCACGTGAGTGG | 0.17
TATGGCACGTGTATAT | -0.09
TTTAGCACGTGTTCGA | -0.11
GTAGGCACGTGTGATA | -0.03
AGTATCACGTGGTCGG | 0.08
AATTGCACGTGTATGA | 0.04
CTCTGCACGTGTATTG | 0.01
TTGGTCACGTGATTTA | 0.19
TTCTTCACGTGGTGTA | 0.12
TGGTACACGTGTGGGA | 0.03
AAGAGCACGTGATTGT | 0.04
GGAATCACGTGGGAGA | 0.09
GAGCGCACGTGGTGGC | -0.12
TGCAACACGTGTAGTG | 0
ATAGGCACGTGGACGT | -0.14
ATAGACACGTGGTTGT | -0.12
CGGGTCACGTGCGTTA | 0.07
TTCTGCACGTGTAGGG | 0.13
GGGGCCACGTGATGAT | 0.21
CATGGCACGTGTTTAG | 0.03

Sequence | relative binding free energy [kcal/mol]
TCTGACACGTGTGGAG | 0.01
ATGATCACGTGCAGTG | 0.21
GTTGTCACGTGGCGTT | 0.04
TGTTTCACGTGGACTG | 0.23
GTGTTCACGTGCAGAG | 0.25
TCGTTCACGTGTTGTG | 0.2
GCGTTCACGTGGTTTT | 0.37
ACAGTCACGTGGGAAG | 0.08
TGGGACACGTGTTGCT | -0.18
TATCGCACGTGGGAGT | -0.19
GGTTTCACGTGTAAAA | 0.27
GGGTGCACGTGGGGAA | -0.03
CTGTGCACGTGGGTAG | -0.15
TCTTTCACGTGAAGGA | 0.54
GAATGCACGTGGGTGA | -0.15
GTATACACGTGTGTTA | 0.04
TAAGTCACGTGCTGTG | 0.21
ATTTTCACGTGCAGGA | 0.25
GGAATCACGTGGGACT | 0.32
ATTTCCACGTGTTATT | 0.16
TGTTGCACGTGCCGTG | -0.21
GTATTCACGTGGTACG | 0
TGTGCCACGTGTTAGA | -0.08
TGCGACACGTGCGGGT | 0.08
AGGCTCACGTGGGCAG | 0.06
TTGGACACGTGAATTT | 0.32

Sequence | relative binding free energy [kcal/mol]
TTTTACACGTGGGACG | 0.02
CTTGTCACGTGGCGGT | 0
GTGCGCACGTGGTGGG | -0.18
GGGAACACGTGGAGGG | 0.01
AATATCACGTGTTTCT | 0.09
TTATACACGTGACGGT | 0.08
TTGTACACGTGTACTG | 0.15
GCTGGCACGTGCCGGG | -0.09
TTTTGCACGTGCGAAT | -0.04
TCGTTCACGTGTGTTG | 0.2
GGCTACACGTGTTTTA | 0.21
TGAAACACGTGGGGAT | -0.17
GTTATCACGTGAGCTG | 0.37
GTGTACACGTGGTATG | -0.02
CTCGGCACGTGATGTG | -0.11
TCTGTCACGTGTATGG | 0.02
ATTGTCACGTGTTAGC | 0.05
TTGCTCACGTGGGATT | 0
GTGTTCACGTGGTCTT | 0.21
AGAGGCACGTGCGTGT | -0.19
CGTGCCACGTGATGGT | 0.12
TAGGTCACGTGCTGAT | 0.05
ATGGACACGTGAGGTA | 0.21
GCTGACACGTGTTAGG | 0.27
TGAAGCACGTGTGGCA | -0.09
GGAGGCACGTGGTTAA | -0.07

Sequence | relative binding free energy [kcal/mol]
TTGAGCACGTGATTTT | 0.21
CTTGACACGTGTGTAG | 0.07
TTTGGCACGTGTAGTT | 0.02
TAGGCCACGTGAGTGT | 0.13
GGTGCCACGTGTGTTA | 0
GGGCGCACGTGGCGGG | -0.05
GATATCACGTGTGGAG | 0.08
ATAATCACGTGGGTTA | -0.06
GTTCGCACGTGGGGGG | -0.16
GCTGGCACGTGGGGAG | -0.16
GTGCACACGTGTGGGG | 0.02
GTCCGCACGTGGAGGG | -0.03
TTTCTCACGTGTCTTT | 0.29
GTATTCACGTGGATAT | 0.23
TTTTACACGTGTGGCC | 0.27
AGAGTCACGTGAGTAG | 0.31
TTGTCCACGTGCAGGG | 0.12
GTGGTCACGTGCACAT | 0.22
CGTTTCACGTGCTAGT | 0.25
ACGTTCACGTGGGTAA | 0.02
GTGTACACGTGATAGA | 0.2
TCGTGCACGTGTAATT | 0.08
TGTTTCACGTGAGCAA | 0.51
GAGGTCACGTGTGGCA | 0.24
AGCGTCACGTGTAAGG | 0.08
AGGGGCACGTGTACTG | -0.18

Sequence | relative binding free energy [kcal/mol]
TGAGGCACGTGTGGAA | -0.04
TTAGTCACGTGTGTTA | 0.18
GGGTTCACGTGATCGA | 0.5
TGGTACACGTGATGAG | 0.24
CGCTTCACGTGGGTAT | 0.2
CTTTACACGTGGTTTC | 0.15
GGTTTCACGTGGGAAA | 0.25
AGGTTCACGTGGAATA | 0.33
CTTGGCACGTGGTGTC | -0.22
GAGGGCACGTGCTTTT | -0.02
AGTTACACGTGTTCTG | -0.03
CGTGACACGTGGTAGG | -0.19
TCGGTCACGTGAAATT | 0.33
CTGATCACGTGGGGTA | -0.11
GACGGCACGTGTTGTA | -0.03
TAGGCCACGTGTGGGG | -0.07
CTGATCACGTGGGCGG | -0.1
ACTATCACGTGTGTTG | 0.08
TCAGGCACGTGGAGTT | 0.08
GTCTTCACGTGTATTG | 0.15
TGTATCACGTGGTACG | -0.22
GGGTTCACGTGCTTTT | 0.32
AAATACACGTGTAGGG | -0.05
TGAGGCACGTGCGGAT | -0.06
TGATGCACGTGGTTGG | -0.1
ATGTTCACGTGTACTT | 0.2

Sequence | relative binding free energy [kcal/mol]
TAAGGCACGTGTTTTG | -0.12
GGTACCACGTGGGGTG | -0.19
GCGGGCACGTGTTTAT | 0
AGGTACACGTGGTTCG | 0.02
CGTGGCACGTGGAGTC | -0.06
AGTGTCACGTGATTTA | 0.14
TAAGGCACGTGTGCTT | -0.1
GGGAGCACGTGGGTCG | -0.21
AGTTACACGTGAGTTC | 0.39
TAGACCACGTGTGTGT | -0.04
GAGTACACGTGGGGCG | -0.08
TTTATCACGTGATGGA | 0.26
AAGGGCACGTGCTAAT | 0.07
CTAGGCACGTGTTGCT | -0.08
ATGCTCACGTGTTGGA | 0.25
GAGAGCACGTGGTATG | -0.12
TGGTACACGTGGTCCG | 0.08
GGCGTCACGTGGTTTA | 0.08
TGGTCCACGTGGAGGG | -0.16
AGTGTCACGTGTTGGA | 0.1
ATGCTCACGTGGCGTT | 0.18
GAGCGCACGTGGAAGG | 0.1
TGCGGCACGTGCAATG | 0.11
TGTGGCACGTGTGAAA | 0
AGTGTCACGTGCCTGT | -0.04
TAGTCCACGTGAATGT | 0.34

Sequence | relative binding free energy [kcal/mol]
AATTTCACGTGTGCAT | 0.37
ATTAACACGTGGTCTG | -0.1
TAGAGCACGTGAAGTA | 0.24
TGCGACACGTGGTGTT | -0.07
TAATACACGTGTTTTT | 0.03
GCTAACACGTGTGGTA | 0.14
AGTGGCACGTGTTTTC | -0.07
TTAACCACGTGGGGGG | -0.15
AGTATCACGTGGTATT | 0.13
TGATGCACGTGGGCTT | -0.25
TTATGCACGTGTATAT | -0.06
TTGACCACGTGGAGGG | -0.19
CGGTTCACGTGTTGTG | 0.13
GTATTCACGTGGTGTT | 0.3
CTTTTCACGTGTGCTG | 0.15
AGTATCACGTGGTGGG | 0.13
ATGGACACGTGTGCTT | 0.04
ATTGTCACGTGTGATC | 0.13
TGGGGCACGTGCCCGG | -0.31
CATGTCACGTGAGGAA | 0.39
GTTATCACGTGGCTTA | 0.08
TAGGTCACGTGTTGGT | 0.14
GTTAGCACGTGGTCGG | -0.21
TATGTCACGTGTAACG | 0.06
TGGTACACGTGTAACG | 0.28
GTTTCCACGTGTAGTT | 0.31

Sequence | relative binding free energy [kcal/mol]
GATTGCACGTGGCTGG | -0.09
CAGGTCACGTGTGGCT | 0.12
GTTTGCACGTGATGGT | 0.08
ATCGTCACGTGAGTAG | 0.29
TTAAACACGTGAGATT | 0.3
TATGTCACGTGTAGGA | 0.15
GTTGTCACGTGCGTAG | 0.15
GTTTACACGTGTGGAG | 0.24
TTATGCACGTGTCATG | -0.13
TGTATCACGTGCCTTG | 0.14
TATTGCACGTGTGCTT | 0.03
GATGTCACGTGTGGAA | 0.29
TGCTCCACGTGGGTAG | -0.06
GTGCACACGTGTTGTG | -0.03
TACTGCACGTGGTGTT | -0.24
CGAGGCACGTGATGGG | -0.07
GGAAGCACGTGTTAAG | -0.04
TATTTCACGTGAGTTC | 0.39
TGGATCACGTGGTCCG | 0.22
TGATACACGTGGGGAA | -0.11
AATAACACGTGGTGAA | 0.01
ACAGGCACGTGCGGGT | -0.13
TTGAACACGTGTCTAT | 0.1
TGGGGCACGTGGTTGG | -0.07
AGTTTCACGTGAGAGG | 0.48
TTTACCACGTGAAGTT | 0.18

Sequence | relative binding free energy [kcal/mol]
CTGGTCACGTGAAGTT | 0.35
GCTGTCACGTGTAAGT | 0.19
TATTGCACGTGCGTAT | -0.01
GTGTGCACGTGAGGAG | 0.23
GATGTCACGTGAAGTA | 0.28
TGTGCCACGTGTACGT | -0.05
GGTCTCACGTGTACTG | 0.5
TGGTACACGTGGGCCA | -0.08
ATTATCACGTGATGTC | 0.2
AGTAGCACGTGACAGG | 0.01
CGTTGCACGTGGGTGT | -0.09
CGGTACACGTGGGGCT | -0.24
TGTGCCACGTGTGGGA | -0.11
GTGCCCACGTGGTGGA | -0.11
AAGTACACGTGGTTTG | 0.07
GAGGTCACGTGATTGT | 0.33
CGTGGCACGTGATGCG | 0.01
TGATCCACGTGGTGAT | 0.1
AAAATCACGTGATTGT | 0.23
TTAATCACGTGGATTA | 0.02
AGTTTCACGTGGCGTG | 0.21
CTGTACACGTGCGGGT | 0.11
